We go through 87 molecules from PMC4336329 (PLoS ONE, 2015).

In all, about 310,000 compounds went through this assay and about 2,200 (0.71%) showed an effect of 50% or more. The effect is printed as a negative number. The list shows a part of the results.

In the assay the target is human ether-à-go-go-related gene (hERG) potassium channel (human, UniProt Q12809). Description: primary screen, population patch clamp on CHO cells stably expressing hERG.
Chain of human ether-à-go-go-related gene (hERG) potassium channel (Q12809 whole entry, looked up): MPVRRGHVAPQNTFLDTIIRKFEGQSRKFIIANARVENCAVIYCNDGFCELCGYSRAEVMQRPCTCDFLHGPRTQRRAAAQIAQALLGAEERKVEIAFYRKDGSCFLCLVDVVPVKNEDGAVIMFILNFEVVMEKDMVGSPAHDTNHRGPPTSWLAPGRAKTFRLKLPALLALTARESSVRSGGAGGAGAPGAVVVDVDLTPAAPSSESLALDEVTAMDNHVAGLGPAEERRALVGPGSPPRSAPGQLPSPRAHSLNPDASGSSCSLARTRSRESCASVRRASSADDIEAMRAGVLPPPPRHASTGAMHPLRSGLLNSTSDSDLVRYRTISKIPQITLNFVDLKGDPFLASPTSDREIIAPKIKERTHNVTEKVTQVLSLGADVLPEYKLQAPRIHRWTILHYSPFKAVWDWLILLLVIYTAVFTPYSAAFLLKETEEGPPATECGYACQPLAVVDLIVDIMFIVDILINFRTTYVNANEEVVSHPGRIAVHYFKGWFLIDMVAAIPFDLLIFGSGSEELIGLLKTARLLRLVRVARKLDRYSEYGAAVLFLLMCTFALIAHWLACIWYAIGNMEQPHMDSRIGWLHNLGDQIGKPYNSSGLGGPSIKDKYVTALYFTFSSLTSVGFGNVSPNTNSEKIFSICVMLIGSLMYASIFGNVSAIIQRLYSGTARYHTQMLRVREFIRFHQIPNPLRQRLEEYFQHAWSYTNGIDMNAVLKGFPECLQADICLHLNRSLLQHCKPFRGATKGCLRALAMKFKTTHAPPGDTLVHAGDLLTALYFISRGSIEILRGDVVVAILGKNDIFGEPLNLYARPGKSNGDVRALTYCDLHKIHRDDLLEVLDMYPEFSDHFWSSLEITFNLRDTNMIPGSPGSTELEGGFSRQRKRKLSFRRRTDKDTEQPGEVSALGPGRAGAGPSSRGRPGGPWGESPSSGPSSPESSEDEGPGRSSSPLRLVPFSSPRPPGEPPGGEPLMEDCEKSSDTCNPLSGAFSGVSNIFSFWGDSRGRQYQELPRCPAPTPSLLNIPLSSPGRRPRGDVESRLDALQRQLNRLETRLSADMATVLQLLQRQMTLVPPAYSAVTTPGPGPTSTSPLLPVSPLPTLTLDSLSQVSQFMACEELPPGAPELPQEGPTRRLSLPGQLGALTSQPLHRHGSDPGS
Turning to `COCCN(C(=O)CCC(=O)Nc1ccccn1)C(C(=O)NCCC(C)C)c1ccc(F)cc1` (stereo not drawn), the “hERG current change (%, negative = inhibition) at 1uM” value worked out at 8.74%. The value for `CC(=O)Nc1sc2c(c1C(c1ccccn1)N1CCN(C)CC1)CCCC2` (stereo not drawn) was 1.7%; that for `COc1ccc(Cn2c(=O)cc(N)n(-c3ccccc3C)c2=O)cc1` was 16.1%; that for `Cc1ccc(C)c(NC(=O)Cn2nc(C)c3ccccc3c2=O)c1` was 5.33%. As for `C=C(C)CSc1[nH]c(=O)cc(C)c1C#N`, the “hERG current change (%, negative = inhibition) at 1uM” value is given as 7.6%. Regarding `Cc1ccc(C2=Nc3ccccc3N(C(=O)c3ccccc3)C(C)C2)cc1` (stereo not drawn), the “hERG current change (%, negative = inhibition) at 1uM” value was determined as 14.9%. The value for `O=C(Nc1ccccc1)C1CC(=O)n2ncnc2N1` (stereo not drawn) was 7.18%; that for `O=c1ccc(-c2ccc(S(=O)(=O)Nc3ccccc3)o2)n[nH]1` was 12%. Take `O=C(O)c1ccc2c(c1)C(=O)N(NC(=O)c1ccccc1)C2=O`: the “hERG current change (%, negative = inhibition) at 1uM” value was found to be 11.4%.

For `COc1ccccc1NS(=O)(=O)c1ccc2oc(SC3CCOC3=O)nc2c1` (stereo not drawn), the “hERG current change (%, negative = inhibition) at 1uM” value is on record as 9.89%. As for `Cc1cc(CSc2nc(C)cc(=O)[nH]2)c2ncccc2c1`, the figure is 6.69%; as for `CCOc1ccccc1NC(=O)NC(C)c1ccc2c(c1)OCO2` (stereo not drawn), 1.75%; as for `O=C(C1CCC(CNc2c(N3CCCC3)c(=O)c2=O)CC1)N1CCc2ccccc21` (stereo not drawn), 12.2%. As for `COc1ccccc1Nc1nc(C)cs1`, the figure is 0.343%. As for `CCN(C(=O)CSc1nnnn1C)c1c(N)n(Cc2ccccc2)c(=O)[nH]c1=O`, the figure is -0.914%; as for `C#CC[N+]1(CC#Cc2cccc3ccccc23)CCOCC1.[Br-]`, 8.42%. Take `CC1=NN(c2ccccc2)C(=O)/C1=C/C=C/C=C/N(C)C`: the “hERG current change (%, negative = inhibition) at 1uM” value is listed as 13.5%. On to `O=C(CCn1nc(-c2ccc(Cl)cc2)ccc1=O)NCc1ccccn1`, for which the “hERG current change (%, negative = inhibition) at 1uM” value is listed as -3.96%.

As to `CCOc1ccc(CCNC(=O)CN(C)S(=O)(=O)c2cccc3nsnc23)cc1OCC`, the “hERG current change (%, negative = inhibition) at 1uM” value worked out at 9.05%. As for `Cc1cc(NC(=O)CSc2ccc3ccccc3c2)no1`, the figure is -26.4%; as for `CC(=O)c1ccc(NC(=O)CSc2nnc(-c3ccco3)c(-c3ccco3)n2)cc1`, 2.75%.

For the molecule `Cc1ccccc1C(=O)Nc1nnc(-c2cccnc2)o1`, the “hERG current change (%, negative = inhibition) at 1uM” value amounted to 14.3%.

On to `COC(=O)C1=C(CCc2ccccc2)NC(=O)NC1c1ccc(Br)cc1` (stereo not drawn), for which the “hERG current change (%, negative = inhibition) at 1uM” value is on record as -8.25%. As for `Cc1ccc2c(c1)c(C1=c3ccccc3=NC1=O)c(O)n2C`, the figure is 18.7%; as for `COc1ccc(C(CNC(=O)c2cc(C)oc2C)N2CCOCC2)cc1` (stereo not drawn), 6.58%. As for `O=C(NC1C2CC3CC(C2)CC1C3)C1CCCCC1` (stereo not drawn), the figure is 13.9%. With `CNC(CC(C)C)C(=O)NC1C(=O)NC(CC(N)=O)C(=O)NC2C(=O)NC3C(=O)NC(C(=O)NC(C(=O)O)c4cc(O)cc(O)c4-c4cc3ccc4O)C(O)c3ccc(c(Cl)c3)Oc3cc2cc(c3OC2OC(CO)C(O)C(O)C2OC2CC(C)(N)C(O)C(C)O2)Oc2ccc(cc2Cl)C1O.Cl.O` (stereo not drawn), the “hERG current change (%, negative = inhibition) at 1uM” value is on record as 4.85%. The value for `Cc1cc(-n2ccc(=O)[nH]c2=O)nc(-c2ccccc2)n1` was 10.2%. As to `O=S(=O)(NCc1ccc(Cl)cc1Cl)c1cccs1`, the “hERG current change (%, negative = inhibition) at 1uM” value is listed as 8.5%.

On to `COc1cc(NC(=O)c2ccc(Br)o2)ccc1NC(=O)C(C)C`, for which the “hERG current change (%, negative = inhibition) at 1uM” value is on record as -9.33%. As to `Cc1ccc(OCC(=O)N2CCN(Cc3cccnc3)CC2)cc1.O=C(O)C(=O)O`, the “hERG current change (%, negative = inhibition) at 1uM” value came out at 0.195%.

`Cc1ccc(Cl)c(N/C=C/C(=O)c2ccccc2)c1`: the “hERG current change (%, negative = inhibition) at 1uM” value was 14.5%. As to `CC1=C(C(=O)OCc2ccccc2)C(c2ccccc2OS(=O)(=O)c2ccccc2[N+](=O)[O-])NC(=O)N1CCCC(=O)O` (stereo not drawn), the “hERG current change (%, negative = inhibition) at 1uM” value is given as 11.1%.

In the case of `COc1ccccc1C(=O)Nc1cccc(SC)c1`, the “hERG current change (%, negative = inhibition) at 1uM” value was -0.827%. The value for `CCCCN(C(=O)CC1CCCC1)c1c(N)n(CCCC)c(=O)[nH]c1=O` was 2%. The value for `COc1ccc(-n2nc(C(=O)N(C)C)nc2-c2ccccc2)cc1` was 10.5%. The value for `Cc1ccc(C(=O)NC(=S)Nc2ccc(N3CCN(C(=O)c4ccco4)CC3)cc2)cc1` was 17.7%; that for `CN1CC(=O)NC1=NC(=O)c1ccc(Cl)c(S(=O)(=O)N2CCCCCC2)c1` was 6.07%; that for `COc1cc(/C=C2/NC(=O)N(Cc3ccccc3F)C2=O)ccc1O` was 6.87%. Turning to `CN(C)Cc1c(O)ccc2c(=O)c(-c3ccccc3)c(C(F)(F)F)oc12`, the “hERG current change (%, negative = inhibition) at 1uM” value is given as 11%. On to `COc1ccc(N2C(=NC(=O)C(C)Oc3ccccc3)SC3CS(=O)(=O)CC32)cc1` (stereo not drawn), for which the “hERG current change (%, negative = inhibition) at 1uM” value is given as 0.401%. Turning to `O=[N+]([O-])c1cc(C(F)(F)F)ccc1Sc1ccc2ccccc2n1`, the “hERG current change (%, negative = inhibition) at 1uM” value was found to be 7.15%. As for `Cc1cc(C(=O)O/N=C(\N)c2ccc(C(C)(C)C)cc2)no1`, the figure is 15.6%.

In the case of `CCCCCCn1c(SCC(=O)OC)nc2c1c(=O)[nH]c(=O)n2C`, the “hERG current change (%, negative = inhibition) at 1uM” value is listed as -45.2%. As for `CCN(CC)C(=O)Cn1cc(C(=O)C(=O)N2CCN(c3ccc(OC)cc3)CC2)c2ccccc21`, the figure is 23.7%. As for `CC(=O)CCc1ccccc1`, the “hERG current change (%, negative = inhibition) at 1uM” value is 11.8%.

Regarding `O=c1[nH]cnc2cc(-c3ccc(Br)cc3)sc12`, the “hERG current change (%, negative = inhibition) at 1uM” value is listed as 16.6%. Consider `CCCOc1ccc(Cn2c(=O)oc3ccc(C)cc32)cc1OC`, for which the “hERG current change (%, negative = inhibition) at 1uM” value turned out to be 10.2%.

For the molecule `COc1ccc(CN2C(=O)CSCC2=O)cc1OC`, the “hERG current change (%, negative = inhibition) at 1uM” value came to 8.91%. The value for `Cc1nc2ccccn2c1C(=O)NNC(=O)Nc1ccccc1` was 12.2%. The value for `CCc1nnc(NC(=O)CSc2nc(C)c3c(c2C#N)CCCC3)s1` was 3.44%; that for `C/C(CC(=O)NCc1ccccc1)=N\NC(=O)c1cnccn1` was 1.56%; that for `CN1CCC(=O)N(CCN=[N+]=[N-])CC1` was 13.6%. As for `O=C(COc1coc(CN2CCN(c3ccc(F)cc3)CC2)cc1=O)NCC1CCCO1` (stereo not drawn), the “hERG current change (%, negative = inhibition) at 1uM” value is 8.82%. The value for `CCN1CCN(C(=O)Cn2nc(-c3ccc(Cl)cc3)ccc2=O)CC1` was 10.4%.

`CN(CC(=O)Nc1ccccc1C(=O)NC1CC1)Cc1ccc(Cl)s1`: the “hERG current change (%, negative = inhibition) at 1uM” value is -3.75%. The value for `COc1cc(C=O)c(Cl)cc1OCC(N)=O` was 5.81%. As for `COc1ccc(S(=O)(=O)N2CCC(C(=O)N3CCCC3)CC2)cc1`, the figure is -0.331%; as for `CCc1cccc2c(C=C(C#N)C#N)cn(CC(=O)N3CCCCCC3)c12`, 9.65%. As for `Cc1[nH]c(=O)[nH]c(=O)c1S(=O)(=O)N1CCCC(C(=O)NCCc2ccccc2)C1` (stereo not drawn), the figure is 14%. As to `CCC(CC)C(=O)N1N=C(c2ccc(NS(C)(=O)=O)cc2)CC1c1ccccc1` (stereo not drawn), the “hERG current change (%, negative = inhibition) at 1uM” value is -1.15%. The value for `O=C(O)c1nn(Cc2csc(-c3ccccc3)n2)c(=O)c2ccccc12` was 6.44%; that for `O=C(NC1CC1)c1ccc(NS(=O)(=O)c2ccc(F)cc2)cc1` was -29.2%. As for `c1ccc(COc2cccc(CNn3cnnc3)c2)cc1`, the figure is 11.6%. `COc1ccc(OC)c(CCNC(=O)C(C)n2nc(C)c3c(C)n(-c4ccccc4)nc3c2=O)c1` (stereo not drawn): the “hERG current change (%, negative = inhibition) at 1uM” value was found to be 9.86%. As for `CC1(C)CC(=O)C2=C(C1)OC(N)=C(C#N)C2c1ccc(OC(=O)N2CCOCC2)cc1` (stereo not drawn), the figure is -2.96%. As for `CN1C(=O)C(O)(C2CCCCCC2=O)c2ccccc21` (stereo not drawn), the figure is 4.63%; as for `c1ccc(CC2CCN(C3=Nc4cccc5cccc3c45)CC2)cc1`, -27.6%; as for `N#CCC(=O)c1ccccc1Oc1ccc(Cl)cc1`, 16.5%. For `O=C(O)COc1ccccc1/C=N/NC(=O)c1cc(-c2ccccc2)nc2ccccc12`, the “hERG current change (%, negative = inhibition) at 1uM” value was determined as 12.5%. Regarding `COC(=O)c1ccc(CSc2n[nH]c(-c3ccccc3)n2)o1`, the “hERG current change (%, negative = inhibition) at 1uM” value is reported as 12.4%.

Regarding `CC(CCc1ccccc1)NC(=O)c1nnc(Cc2ccc(Cl)cc2)o1` (stereo not drawn), the “hERG current change (%, negative = inhibition) at 1uM” value is listed as 11.4%. Turning to `O=C(NNS(=O)(=O)c1ccccc1)C1CCN(S(=O)(=O)c2ccccc2)CC1`, the “hERG current change (%, negative = inhibition) at 1uM” value came out at 9.9%. In the case of `CC1CCCCN1S(=O)(=O)c1ccc(C(=O)Nc2sccc2C(N)=O)cc1` (stereo not drawn), the “hERG current change (%, negative = inhibition) at 1uM” value stood at 13.6%.

Consider `Cc1csc(NC(=O)c2ccccc2O)n1`, for which the “hERG current change (%, negative = inhibition) at 1uM” value is 2.99%. Turning to `O=C(COc1ccc(S(=O)(=O)N2CCCC2)cc1)N1CCN(c2ccccc2F)CC1`, the “hERG current change (%, negative = inhibition) at 1uM” value is 1.77%. As for `CNC(=O)C1CCC(=O)N1Cc1ccccc1Cl` (stereo not drawn), the figure is 7.23%; as for `COc1cccc(NC(=O)COC(=O)Cn2c(C)csc2=O)c1`, 4.09%.

For the molecule `CN(C)C(=O)CSc1nnc(C23CC4CC(CC(C4)C2)C3)o1`, the “hERG current change (%, negative = inhibition) at 1uM” value came to 9.12%. For the molecule `COc1ccc(CN(C(=O)CN2C(=O)c3ccccc3S2(=O)=O)C(C(=O)NCC2CCCO2)c2ccncc2)cc1` (stereo not drawn), the “hERG current change (%, negative = inhibition) at 1uM” value amounted to 0.0687%. For the molecule `Cn1c(N)c(C(=O)CSc2nnc(Cc3cccs3)n2C2CC2)c(=O)n(C)c1=O`, the “hERG current change (%, negative = inhibition) at 1uM” value is reported as 5.11%.

Take `CC1(CCc2ccccc2)NC(=O)N(CC(=O)O)C1=O` (stereo not drawn): the “hERG current change (%, negative = inhibition) at 1uM” value turned out to be 10.9%.

As to `CCC(=O)N1CCN(c2ccc(NC(=O)COc3ccccc3Cl)cc2)CC1`, the “hERG current change (%, negative = inhibition) at 1uM” value is listed as -5.62%.

In the case of `CC(C)NC(=O)CSc1nnc(-c2ccc(C(C)(C)C)cc2)n1C`, the “hERG current change (%, negative = inhibition) at 1uM” value worked out at 3.21%.

For the molecule `COC(=O)c1ccc(NC(=O)CSc2nc(N)c(NC(=O)c3ccc(Br)o3)c(=O)[nH]2)cc1`, the “hERG current change (%, negative = inhibition) at 1uM” value is listed as 15.6%. For `COCCN1Cc2cccc(C(=O)Nc3ccccc3OC)c2C1=O`, the “hERG current change (%, negative = inhibition) at 1uM” value is recorded as -6.84%. As for `COc1ccc(OCC(=O)N2CCN(c3nnc(-c4ccccc4)c4ccccc34)CC2)cc1`, the figure is -12.4%.
